Results reported in US11285169B2, “Methods for modulating chemotherapeutic cytotoxicity” (The United States of America, as represented by the …, priority 2013, dated 2022).

Legend:
[1] = test system: CD47 deficient (CD47 KO) Jurkat T cells; test: cells; settings: Homo sapiens, 48 h, read-out: AC50 (μM) CD47 KO
[2] = test system: WT Jurkat cells; test: cells; settings: Homo sapiens, 48 h, read-out: AC50 (μM) WT
[3] = test system: CD47 deficient (CD47 KO) Jurkat T cells; settings: for Δ LogAC50 CD47KO-WT: log AC50 difference CD47 KO minus WT
[4] = test system: WT Jurkat cells
[5] = WT Jurkat cells, 48 hours, 10^-9 to 10^-4 M, CellTiter-Glo
[6] = CD47 KO Jurkat T cells, 48 hours, 10^-9 to 10^-4 M, CellTiter-Glo
[7] = difference CD47 KO minus WT Jurkat cells, 48 hours

Compound | AC50 [1] | AC50 [2] | Δ LogAC50 CD47KO-WT [3] | Maximal Response WT (RLU) [4, 5] | Maximal Response CD47 KO (RLU) [3, 6] | also measured
Cn1cnc(N)c2ncnc1-2 [3-Methyladenine] | 0.59 µM | 0.132 µM | 0.65 | – | – | –
CC[C@@H]1C(=O)N(C)c2cnc(Nc3ccc(C(=O)N[C@H]4CC[C@H](N5CCN(CC6CC6)CC5)CC4)cc3OC)nc2N1C(C)C [Volasertib] | 0.332 µM | 0.0662 µM | 0.7 | – | – | –
C=C[C@H]1CN2CC[C@H]1C[C@H]2[C@H](O)c1ccnc2ccccc12 [Cinchonidine] | 20.9 µM | 3.32 µM | 0.8 | – | – | –
COc1cc2c(Nc3ccc(Cl)c(Cl)c3F)ncnc2cc1OC[C@@H]1C[C@@H]2CN(C)C[C@@H]2C1 [XL-647] | 11.8 µM | 3.72 µM | 0.5 | – | – | –
COc1ccc(-c2ccc3ncc4c(c3c2)n(-c2ccc(N3CCNCC3)c(C(F)(F)F)c2)c(=O)n4C)cn1 [NVP-BGT226] | 0.526 µM | 0.0662 µM | 0.9 | – | – | –
C=CC(=O)Nc1ccc2ncnc(Nc3ccc(OCc4cccc(F)c4)c(Cl)c3)c2c1 [AST-1306] | 1.05 µM | 0.264 µM | 0.6 | – | – | –
Cc1cc(O)c2c3c4c(cc(O)c13)C(C)(C)C(=O)c1c(O)cc(O)c(c1-4)C2=O [Resistomycin] | 4.69 µM | 1.18 µM | 0.6 | – | – | –
CN[C@H]1CN(c2ccc3c(=O)c(C(=O)O)cn(-c4nccs4)c3n2)C[C@@H]1OC [Vosaroxin] | 12.9 µM | 1.15 µM | 1.05 | – | – | –
CO[C@H]1/C=C\C=C(/C)C(=O)NC2=CC(=O)C(NCCN(C)C)=C(C[C@@H](C)C[C@H](OC)[C@H](O)[C@@H](C)/C=C(\C)[C@@H]1OC(N)=O)C2=O [Alvespimycin hydrochloride] | 0.662 µM | 0.166 µM | 0.6 | – | – | –
Cc1cc(C2CCCCC2)n(O)c(=O)c1 [Ciclopirox] | 14.8 µM | 1.05 µM | 1.15 | – | – | –
CC1(COc2ccc3c(c2)ncn3-c2ccc3cccc(N4CCC(N)CC4)c3n2)COC1 [Crenolanib] | 14.8 µM | 2.64 µM | 0.75 | – | – | –
CC(C)n1nc(-c2ccc3oc(N)nc3c2)c2c(N)ncnc21 [INK-128] | 4.18 µM | 0.332 µM | – | – | – | –
Nc1ccccc1NC(=O)c1ccc(CNc2nccc(-c3cccnc3)n2)cc1 [Mocetinostat] | 2.64 µM | 0.59 µM | – | – | – | –
C=C1C(=O)[C@]23[C@H](O)[C@H]1CC[C@H]2[C@@]12CO[C@]3(O)[C@@H](O)[C@@H]1C(C)(C)CC[C@@H]2O [Oridonin] | 7.43 µM | – | 0.5 | – | – | –
C/C(=C\c1csc(C)n1)[C@@H]1C[C@@H]2O[C@]2(C)CCC[C@H](C)[C@H](O)[C@@H](C)C(=O)C(C)(C)[C@@H](O)CC(=O)O1 [Epothilone B] | – | – | – | – | – | Maximal Response WT (RLU) [4]: 27.108 RLU; Maximal Response CD47 KO (RLU) [3]: 49.832 RLU; Δ Maximal Response CD47KO-WT [3]: 22.724
C[C@H]1COC2=C1C(=O)C(=O)c1c2ccc2c1CCCC2(C)C [Cryptotanshinone] | – | – | – | – | – | Maximal Response WT (RLU) [4]: 5.548 RLU; Maximal Response CD47 KO (RLU) [3]: 31.687 RLU
Cn1cc(C2=C(c3cn(C4CCN(Cc5ccccn5)CC4)c4ccccc34)C(=O)NC2=O)c2ccccc21 [Enzastaurin] | – | – | – | 13.534 RLU | 40.303 RLU | –
Cc1cncc2cccc(S(=O)(=O)N3CCCN(C(=O)CN)C[C@@H]3C)c12 [Glycyl-H-1152] | – | – | – | 62.229 RLU | 99.473 RLU | –
C[C@H](Cc1ccc(O)c(O)c1)[C@@H](C)Cc1ccc(O)c(O)c1 [Masoprocol] | – | – | – | 3.946 RLU | 31.706 RLU | –
Oc1ccc(C2CNCCc3c2cc(O)c(O)c3Cl)cc1 (stereo not drawn) [Fenoldopam] | – | – | – | 61.271 RLU | 93.129 RLU | –
NCCCCNCCCN [Spermidine] | – | – | – | 20.847 RLU | 82.208 RLU | –

Compound | AC50 [1] | AC50 [2] | Δ LogAC50 CD47KO-WT [3] | Maximal Response WT (RLU) [4, 5] | Maximal Response CD47 KO (RLU) [3, 6] | also measured
C[C@]12C=CC(=O)C=C1CC[C@@H]1[C@@H]2[C@@H](O)C[C@@]2(C)[C@H]1CC[C@]2(O)C(=O)CO [Prednisolone] | – | – | – | 43.795 RLU | 71.927 RLU | –
O=C(O)c1cccc(-c2noc(-c3ccccc3F)n2)c1 [PTC-124] | – | – | – | 77.858 RLU | 109.291 RLU | –
Bioymifi | – | – | – | – | – | Maximal Response WT (RLU) [4]: 10.488 RLU; Maximal Response CD47 KO (RLU) [3]: 48.515 RLU; Δ Maximal Response CD47KO-WT [3]: 38.027
Cc1c(Cn2c(C)nc3c(C(=O)O)cc(N4CCOCC4)cc32)cccc1C(F)(F)F [GSK-2636771] | – | – | – | 26.827 RLU | 51.53 RLU | –
O=C(Nc1c[nH]nc1-c1nc2ccc(CN3CCOCC3)cc2[nH]1)NC1CC1 [AT-9283] | – | – | – | 2.937 RLU | 24.648 RLU | –
COc1ccc(F)c(F)c1C(=O)c1cnc(NC2CCN(S(C)(=O)=O)CC2)nc1N [R-547] | – | – | – | 3.1 RLU | 36.61 RLU | Δ Maximal Response CD47KO-WT [3, 7]: 33.51
COc1ccc(C(=O)c2c(C)n(CCN3CCOCC3)c3ccccc23)cc1 [Pravadoline] | – | – | – | – | – | Maximal Response WT (RLU) [4]: 83.446 RLU; Maximal Response CD47 KO (RLU) [3]: 110.289 RLU
Cc1coc2c1C(=O)C(=O)c1c-2ccc2c(C)cccc12 [Tanshinone I] | – | – | – | 23.03 RLU | 62.314 RLU | Δ Maximal Response CD47KO-WT [3, 7]: 39.284
COc1cc(C2Oc3cc([C@H]4Oc5cc(O)cc(O)c5C(=O)[C@@H]4O)ccc3OC2CO)ccc1O (stereo partly drawn) [Silybin] | – | – | – | 13.77 RLU | 40.999 RLU | –
CC[C@H]1CN2CCc3cc(OC)c(OC)cc3[C@@H]2C[C@@H]1C[C@H]1NCCc2cc(OC)c(OC)cc21 [Emetine] | – | – | – | 5.168 RLU | 33.945 RLU | –
CCNC(=O)Nc1ccc(Oc2ncnc(N)c2/C=N/OC)cc1Cl [JNJ-38158471] | – | – | – | 28.354 RLU | 64.339 RLU | Δ Maximal Response CD47KO-WT [3, 7]: 35.985
CN1CC[C@H](c2c(O)cc(O)c3c(=O)cc(-c4ccccc4Cl)oc23)[C@H](O)C1 [Flavopiridol???] | – | – | – | 2.486 RLU | 37.554 RLU | Δ Maximal Response CD47KO-WT [3, 7]: 35.068
O=C(NOCC1CC1)c1ccc(F)c(F)c1Nc1ccc(I)cc1Cl [PD-184352] | – | – | – | 14.102 RLU | 42.673 RLU | Δ Maximal Response CD47KO-WT [3, 7]: 28.571
COCCCOc1ccnc(C[S+]([O-])c2nc3ccccc3[nH]2)c1C (stereo not drawn) [Rabeprazole] | – | – | – | 92.342 RLU | 115.444 RLU | –
COc1cc([C@@H]2c3cc4c(cc3[C@@H](O[C@@H]3O[C@@H]5CO[C@@H](C)O[C@H]5[C@H](O)[C@H]3O)[C@H]3COC(=O)[C@H]23)OCO4)cc(OC)c1O [Etoposide] | – | – | – | 10.441 RLU | 69.938 RLU | –
COc1cccc2c1C(=O)c1c(O)c3c(c(O)c1C2=O)C[C@@](O)(C(=O)CO)C[C@@H]3O[C@H]1C[C@H](N)[C@@H](O)[C@H](C)O1 [Epirubicin hydrochloride] | 1.05 µM | – | 0.6 | – | 49.805 RLU | –
O=C1[O][Pt]2([NH][C@@H]3CCCC[C@H]3[NH]2)[O]C1=O [Oxaliplatin] | – | – | – | – | – | Maximal Response WT (RLU) [4]: 49.399 RLU; Maximal Response CD47 KO (RLU) [3]: 109.492 RLU; Δ Maximal Response CD47KO-WT [3]: 60.093; sensitivity of CD47-expressing versus deficient Jurkat T cells ([3]; 48 hours): differing sensitivities
CCOC(=O)[C@@H](N)CCC(=O)N[C@@H](CSCc1ccccc1)C(=O)N[C@@H](C(=O)OCC)c1ccccc1 [Ezatiostat] | – | – | – | 68.407 RLU | 113.889 RLU | Δ Maximal Response CD47KO-WT [3, 7]: 45.482
CCN(CC)CCOc1ccc(Nc2ncc3cc(-c4c(Cl)cccc4Cl)c(=O)n(C)c3n2)cc1 [PD-166285] | – | – | 0.9 | – | – | AC50 ([4]; read-out: AC50 (μM) WT, WT Jurkat cells, cell viability, 48 hours): 0.59 µM; AC50 ([3]; read-out: AC50 (μM) CD47 KO, CD47 KO Jurkat T cells, cell viability, 48 hours): 4.69 µM
CC1(C)O[C@@H]2C[C@H]3[C@@H]4C[C@H](F)C5=CC(=O)C=C[C@]5(C)[C@@]4(F)[C@@H](O)C[C@]3(C)[C@]2(C(=O)CO)O1 [Fluocinolone acetonide] | – | – | – | 25.744 RLU | 57.23 RLU | –

Structures can show the parent of a compound that is named as a salt. Where two headings read alike, the source gives them in different places.
